# Laboratory results as given in PubChem BioAssay (NCATS).
# This list was built around the results that the source calls inconclusive (neither active nor inactive); the mix of calls is not that of the screen. For some of these results: Potencies of inconclusive entries are left out as doubtful fits. Activity calls are given as the source filed them. Unless noted, calls follow the shape of the dose curve; as a rule, active = well fitted curve in the direction sought with a large enough effect; inconclusive = small, poorly fitted or top-dose-only effect, or another doubt; inactive = no such curve, though single readings can be large; an effect the other way counts as inactive or inconclusive.
# Columns and labels:
# [1] = A High-Content qHTS Against Drug Library for the Identification of Small Molecules that Inhibit DYT1 Early Onset Primary Dystonia-Associated Cell Pathology (AID 1645839; calls by dose curve)
# Summary of the method: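 In this high-content image screen, delE TorsinA mislocalization in inducible Flp-In 293 cells is scored as %pathology, with cell count serving as the counterscreen. Compound exposure lasts 48 h under tetracycline induction in reduced-serum medium.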
# CP237 = test: qHTS profiling for inhibitors of Plasmodium falciparum proliferation (AID 504749); also: nearly all actives have a fitted effect of over 60% in size; conditions: P. falciparum in erythrocytes, SYBR Green DNA, 72 h; series mostly up to 28.7 µM
# Summary of the method: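 Three-day growth assay of blood-stage parasites in erythrocytes (0.3% parasitemia, 2.5% hematocrit) at 37 C, 5% CO2, quantified by SYBR Green DNA staining after overnight detergent lysis.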
# [2] = qHTS of pediatric cancer cell lines to identify multiple opportunities for drug repurposing: Confirmatory screen for NB1643 cells (AID 1347109); also: nearly all actives have a fitted effect of over 45% in size
# Summary of the method: (§1)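 Cells (500-1,000/well) rested 5 h, then received compounds for 48 h; metabolically active cells were measured by CellTiter-Glo luminescence. Final concentrations spanned up to 46 µM (MIPE, 11-point) or 0.59 nM-46 µM (NPC, 8-point) in primary screens, 11-point in follow-ups.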
# [3] = qHTS of pediatric cancer cell lines to identify multiple opportunities for drug repurposing: Confirmatory screen for SK-N-MC cells (AID 1347111);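 also: cells exposed to compound for 48 h before the readout; nearly all actives have a fitted effect of over 70% in size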
# Summary of the method: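 Seed 500-1,000 cells/well; rest 5 h at 37 degrees C. Pin-transfer compounds, 11-point titration. Incubate 48 h. Add CellTiter-Glo, 15 min RT, read luminescence.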
# [4] = qHTS of pediatric cancer cell lines to identify multiple opportunities for drug repurposing: Confirmatory screen for LAN-5 cells (AID 1347113); also: nearly all actives have a fitted effect of over 65% in size
# Summary of the method: as §1
# [5] = qHTS of pediatric cancer cell lines to identify multiple opportunities for drug repurposing: Confirmatory screen for DAOY cells (AID 1347114); also: nearly all actives have a fitted effect of over 65% in size
# Summary of the method: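 Viability measured as metabolically active cells via CellTiter-Glo luminescence following 48 hours of compound exposure, 11-point dilutions in confirmatory testing. 500-1,000 cells/well plated 5 hours before dosing; controls were DMSO and 2.3 µM bortezomib.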
# [6] = qHTS of pediatric cancer cell lines to identify multiple opportunities for drug repurposing: Confirmatory screen for MG 63 (6-TG R) cells (AID 1347119); also: nearly all actives have a fitted effect of over 55% in size
# Summary of the method: as §1
# [7] = qHTS of pediatric cancer cell lines to identify multiple opportunities for drug repurposing: Confirmatory screen for U-2 OS cells (AID 1347122); also: nearly all actives have a fitted effect of over 65% in size
# Summary of the method: as §1
# [8] = qHTS of pediatric cancer cell lines to identify multiple opportunities for drug repurposing: Confirmatory screen for Rh41 cells (AID 1347123); also: nearly all actives have a fitted effect of over 60% in size
# Summary of the method: as §1
# [9] = qHTS of pediatric cancer cell lines to identify multiple opportunities for drug repurposing: Confirmatory screen for RD cells (AID 1347124); conditions: RD rhabdomyosarcoma cell viability; series mostly up to 45.9 µM;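 also: cells exposed to compound for 48 h before viability readout; nearly all actives have a fitted effect of over 65% in size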
# Summary of the method: as §1
# [10] = qHTS of pediatric cancer cell lines to identify multiple opportunities for drug repurposing: Confirmatory screen for Rh30 cells (AID 1347126); also: nearly all actives have a fitted effect of over 55% in size
# Summary of the method: as §1
# [11] = Quantitative High-Throughput drug screen in 47 multiple myeloma cell lines against the NCATS MIPE library collection: PE2_PLB cell viability assay (AID 1919869); also: nearly all actives have a fitted effect of over 35% in size
# Summary of the method: (§2)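 Plated at 500 cells per well, myeloma lines received MIPE 4.0 compounds by pin tool. Following 48 h culture at 37 °C, CellTiter-Glo luminescence gave viability relative to DMSO and media-only controls.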
# [12] = qHTS to identify inhibitors of the type 1 interferon - major histocompatibility complex class I in skeletal muscle: primary screen against the NCATS Pharmaceutical Collection (AID 1347407); conditions: human skeletal muscle cells, IFN-b-induced MHC-I HiBiT luminescence, 24 h; series mostly up to 45.9 µM;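 also: luminescence of HiBiT knocked into endogenous HLA-B as interferon-induced MHC class I level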
# Summary of the method: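 HLA-B HiBiT myoblasts, dexamethasone-free growth medium + 4 ng/ml IFN-b; compounds pinned 1 h after seeding, […] from 46 uM; 24 h, 37 C, 5% CO2; lytic HiBiT detection, 10 min RT, luminescence.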
# [13] = qHTS Assay for Identifying Gametocytocidal Compounds (AID 743244); conditions: P. falciparum 3D7 stage III-V gametocytes, alamarBlue, 72 h; max response: stronger effect = lower value
# Summary of the method: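 Using 20,000 stage III–V 3D7 gametocytes per well, compounds were incubated 72 h under 37 °C/5% CO2. Viability was then assessed by 24 h alamarBlue reduction, measured fluorometrically at 525/598 nm.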
# [14] = Quantitative High-Throughput drug screen in 47 multiple myeloma cell lines against the NCATS MIPE library collection: Karpas25_ECACC cell viability assay (AID 1918968; also: nearly all actives have a fitted effect of over 35% in size); conditions: Karpas25 myeloma viability, CellTiter-Glo ATP, 48 h; series mostly up to 45.8 µM
# Summary of the method: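 Approved and investigational drugs from MIPE 4.0 were added by pin tool to 500 cells per well. After 48 hours at 37C, ATP-based CellTiter-Glo luminescence indicated remaining viability.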
# [15] = Quantitative High-Throughput drug screen in 47 multiple myeloma cell lines against the NCATS MIPE library collection: KMS12BM_JCRB cell viability assay (AID 1918971); also: nearly all actives have a fitted effect of over 35% in size
# Summary of the method: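 We plated 500 myeloma cells per well, pinned in MIPE 4.0 compounds, and incubated for 48 hours at 37C. ATP was then quantified with CellTiter-Glo, with DMSO and media-only wells defining 100% and 0%.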
# [16] = Quantitative High-Throughput drug screen in 47 multiple myeloma cell lines against the NCATS MIPE library collection: NCIH929_DSMZ cell viability assay (AID 1918978); conditions: NCI-H929 myeloma viability, CellTiter-Glo ATP, 48 h; series mostly up to 45.8 µM; also: nearly all actives have a fitted effect of over 35% in size
# Summary of the method: as §2
# [17] = molecular target: Cytochrome P450 3A4 (Homo sapiens) (UniProt P08684); test: Cytochrome P450 family 3 subfamily A member 4 (CYP3A4) small molecule antagonists: luciferase qHTS assay (AID 1645841; active = well fitted curve in the direction sought with a large enough effect in the repeat runs; inconclusive = weak or mixed curves; inactive = no such curve, though single readings can be large; an effect the other way counts as inactive or inconclusive; also: nearly all actives have a fitted effect of over 45% in size)
# UniProt P08684, sequence (P08684 whole entry, looked up): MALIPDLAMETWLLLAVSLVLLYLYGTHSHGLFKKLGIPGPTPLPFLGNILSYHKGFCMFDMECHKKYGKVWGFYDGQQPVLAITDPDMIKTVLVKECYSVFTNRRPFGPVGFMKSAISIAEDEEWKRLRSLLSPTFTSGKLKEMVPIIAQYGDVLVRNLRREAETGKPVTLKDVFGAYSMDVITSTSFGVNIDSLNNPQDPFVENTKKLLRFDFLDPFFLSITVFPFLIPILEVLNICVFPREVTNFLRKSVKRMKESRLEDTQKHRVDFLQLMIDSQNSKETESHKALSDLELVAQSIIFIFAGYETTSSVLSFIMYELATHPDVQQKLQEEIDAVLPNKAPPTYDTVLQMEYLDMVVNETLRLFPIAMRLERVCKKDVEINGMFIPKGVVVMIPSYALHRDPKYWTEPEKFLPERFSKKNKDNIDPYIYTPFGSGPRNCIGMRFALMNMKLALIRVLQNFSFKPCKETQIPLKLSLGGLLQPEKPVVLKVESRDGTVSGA
# Summary of the method: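 Luminescent CYP3A4 activity readout: compounds plus enzyme-substrate mix 10 min at room temperature, reaction started with NADPH regenerating system for 1 h, stopped with detection reagent, read after 20 min. Ketoconazole served as control.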
# Potency is read from the fitted curve at half-maximal effect; tags tell the direction and shape of the fitted curve.
structure (smiles),measurement,setting,value
O=c1[nH]c(=O)n([C@H]2C[C@H](O)[C@@H](CO)O2)cc1F,Potency,[1],"inconclusive [inhibitor, full curve, poor fit]"
same,Potency,CP237,inactive
CC(C)c1cc(-c2n[nH]c(=O)n2-c2ccc3c(ccn3C)c2)c(O)cc1O,Potency,[2],"inconclusive [rising, full curve]"
same,Potency,[3],inactive
same,Potency,[4],inactive
same,Potency,[5],"inconclusive [cytotoxic, full curve]"
same,Potency,[6],"inconclusive [rising, full curve]"
same,Potency,[7],"inconclusive [cytotoxic, full curve]"
same,Potency,[8],"inconclusive [cytotoxic, full curve, poor fit]"
same,Potency,[9],"inconclusive [rising, full curve]"
same,Potency,[10],inconclusive
same,Potency,[11],active: 0.0372 µM
Oc1ccc(Cl)cc1Cc1cc(Cl)ccc1O,Potency,[12],"inconclusive [inhibitor, single point]"
same,Potency,[1],"inconclusive [inhibitor, single point]"
same,Potency,CP237,"inconclusive [inhibitor, partial curve, poor fit]"
COC(=O)C1=C(C)NC(C)=C(C(=O)O[C@@H]2CCCN(Cc3ccccc3)C2)[C@@H]1c1cccc([N+](=O)[O-])c1,Potency,[13],"inconclusive [inhibitor, single point]"
same,Potency,[1],"inconclusive [inhibitor, single point]"
CC(=O)[C@H]1CC[C@H]2[C@@H]3CCC4=CC(=O)CC[C@]4(C)[C@H]3CC[C@]12C,Potency,[2],"inconclusive [cytotoxic, single point]"
same,Potency,[3],"inconclusive [cytotoxic, partial curve, poor fit]"
same,Potency,[4],"inconclusive [cytotoxic, single point]"
same,Potency,[5],"inconclusive [cytotoxic, partial curve]"
same,Potency,[6],"inconclusive [cytotoxic, full curve, poor fit]"
same,Potency,[7],"inconclusive [cytotoxic, full curve]"
same,Potency,[9],"inconclusive [cytotoxic, single point]"
same,Potency,[10],"inconclusive [cytotoxic, full curve, poor fit]"
same,Potency,[14],"inconclusive [cytotoxic, single point]"
same,Potency,[15],"inconclusive [rising, full curve]"
same,Potency,[11],"inconclusive [cytotoxic, single point]"
COc1cc(C)c(Sc2cnc(NC(=O)c3ccc(CNC(C)C(C)C)cc3)s2)cc1C(=O)N1CCN(C(C)=O)CC1 (centres undefined),Potency,[16],active: 2.96 µM
C[C@@]12C(=O)OC(=O)[C@@]1(C)C1CCC2O1,Potency,[4],"inconclusive [cytotoxic, full curve, poor fit]"
same,Potency,[8],active: 1.85 µM
COc1cccc2c1C(=O)c1c(O)c3c(c(O)c1C2=O)C[C@@](O)(C(C)=O)C[C@H]3O[C@H]1C[C@H](N)[C@H](O)[C@H](C)O1,Potency,[2],active: 0.165 µM
same,Potency,[3],active: 0.165 µM
same,Potency,[10],inactive
CC(=O)NC[C@H]1CN(c2ccc(N3CCN(C(=O)CO)CC3)c(F)c2)C(=O)O1,Potency,[17],"inconclusive [falling, partial curve, poor fit]"
Cc1ccccc1C(=O)Nc1ccc(C(=O)N2CCCC(N(C)C)c3ccccc32)cc1 (centres undefined),Potency,[1],"inconclusive [inhibitor, partial curve]"
CC(=O)Oc1ccc(C2(c3ccc(OC(C)=O)cc3)Oc3ccccc3NC2=O)cc1,Potency,[13],"inconclusive [inhibitor, single point]"
same,Potency,[12],"inconclusive [inhibitor, single point]"
same,Potency,[1],active: 12.6 µM
C=CCNC1=C2C[C@@H](C)C[C@H](OC)[C@@H](O)[C@@H](C)C=C(C)[C@H](OC(N)=O)[C@@H](OC)C=CC=C(C)C(=O)NC(=CC1=O)C2=O,Potency,[6],active: 2.61 µM
same,Potency,[8],active: 0.737 µM
same,Potency,[9],active: 0.131 µM
same,Potency,[11],active: 4.18 µM
CCCCCCCCCCCCCCNCCO,Potency,[13],"inconclusive [inhibitor, single point]"
same,Potency,[12],"inconclusive [inhibitor, single point]"
same,Potency,CP237,active: 4.47 µM
COc1cc(C(=O)N2CCC(N3CCN(C)CC3)CC2)ccc1Nc1ncc2c(n1)N(C)c1ccccc1C(=O)N2C,Potency,[17],"inconclusive [falling, single point]"
CCn1cc(-c2ccnc3[nH]c(-c4cccc(CN(C)C)c4)cc23)c(-c2ccc(NC(=O)N(C)C)cc2)n1,Potency,[6],active: 1.85 µM
same,Potency,[7],"inconclusive [cytotoxic, full curve, poor fit]"
